# Experimental data as given in paper PMC6919601, “Identification of Plasmodium dipeptidyl aminopeptidase allosteric inhibitors by high throughput screening” (PLoS ONE, 2019).
# About 230 (0.21%) of roughly 110,000 compounds showed an effect of 50% or more. The list shows a part of the results.
# Target: DPAP1 (Plasmodium falciparum, UniProt Q8IIJ9)
# Experiment: primary screen, percent inhibition; read by cleavage of a fluorogenic dipeptide substrate; higher = more effect of the substance
# Set-up: species or system P. falciparum D10 trophozoite lysates; single well
# 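Note: 30 min substrate incubation versus DMSO and 10 µM JCP410 controls.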
# Chain of DPAP1 (Q8IIJ9 whole entry, looked up): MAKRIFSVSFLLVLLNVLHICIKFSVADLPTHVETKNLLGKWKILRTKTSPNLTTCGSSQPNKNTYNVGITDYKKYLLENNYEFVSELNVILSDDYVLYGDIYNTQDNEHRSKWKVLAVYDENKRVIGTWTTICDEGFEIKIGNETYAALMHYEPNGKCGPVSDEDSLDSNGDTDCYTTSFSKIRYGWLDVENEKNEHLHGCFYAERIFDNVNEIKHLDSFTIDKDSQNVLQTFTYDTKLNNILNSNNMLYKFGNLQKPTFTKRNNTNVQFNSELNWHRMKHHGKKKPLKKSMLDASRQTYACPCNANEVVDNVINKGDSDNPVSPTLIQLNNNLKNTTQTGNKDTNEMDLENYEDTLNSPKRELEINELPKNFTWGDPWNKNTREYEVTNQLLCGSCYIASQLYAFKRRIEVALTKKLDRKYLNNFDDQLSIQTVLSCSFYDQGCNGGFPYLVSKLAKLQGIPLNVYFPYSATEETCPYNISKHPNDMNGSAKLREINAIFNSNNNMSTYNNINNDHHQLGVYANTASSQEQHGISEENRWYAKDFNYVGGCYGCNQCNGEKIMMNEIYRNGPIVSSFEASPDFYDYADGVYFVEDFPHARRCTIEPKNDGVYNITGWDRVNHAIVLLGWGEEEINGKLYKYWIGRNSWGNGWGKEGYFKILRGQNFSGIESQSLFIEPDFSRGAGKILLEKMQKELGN
row,Compound,% Inhibition @ 10 uM [%]
1,Cc1nn(-c2ccccc2)c2sc(C(=O)NCCO)cc12,2.6
2,Cc1ccc2nc(N(CCCN(C)C)C(=O)c3ccc(Cl)cc3)sc2c1,-4.05
3,Cc1cc(C)c2c(N)c(C(=O)NC3CC3)sc2n1,11.4
4,CC(C)(C)NC(=O)N1CCn2c(nc3ccccc32)C1,0.66
5,CC1CCC(C(=O)NC(C(=O)NCCCN2CCCC2=O)C(C)C)CC1 (centres unmarked),-4.06
6,COc1ccc(C2=NN(CC(=O)NCCN3C(C)CCCC3C)C(=O)CC2)cc1 (centres unmarked),1.62
7,CC(C)(C)N1C(=O)c2ccc(C(=O)Nc3ccc(OCC(=O)O)cc3)cc2C1=O,3.49
8,CCCN(CCC)c1nc(-n2cccc2)nc(-n2nnc(C(C)=O)c2C)n1,-6.74
9,Cc1ccn(-c2cc(-c3cccs3)cc(-n3ccc(C)n3)n2)n1,-2.98
10,O=C1CCCN1CCCNc1nc2c(S(=O)(=O)c3ccccc3)nnn2c2ccc(Cl)cc12,-3.08
11,COc1ccc(-c2nc(NC3CCCCC3)sc2CCC(=O)O)cc1,2.62
12,Cc1ccccc1C(O)c1ccncc1 (centres unmarked),2.01
13,OC(c1ccccc1)c1nc2ccccc2n1CCc1ccccc1 (centres unmarked),-2.92
14,CC(=O)C1=C(O)C=C(c2ccco2)CC1c1ccco1 (centres unmarked),1.57
15,COc1cccc(OCC(O)CN2C(C)CCCC2C)c1 (centres unmarked),-12.5
16,O=C(O)CCCC(=O)N1CCN(c2ccc(F)cc2)CC1,-6.51
17,CCC(C)(C)C1CCc2c(sc(N)c2C(N)=O)C1 (centres unmarked),-0.436
18,OC1CCC(C2CC3CCC2C3)CC1O (centres unmarked),-1.77
19,O=C(CSc1ccc(Cl)cc1)N1CCN(c2ccccc2F)CC1,-15.2
20,O=S(=O)(c1ccc2nc(O)c(O)nc2c1)N1CCN(Cc2ccccc2)CC1,-0.601
21,CC/N=C(\NS(=O)(=O)c1ccc(Cl)cc1)c1ccc(OC)cc1,-0.0267
22,CCOC(=O)C1=CN(C(C)C)C=C(C(=O)OCC)C1c1cccc(Cl)c1,3.45

row,Compound,% Inhibition @ 10 uM [%]
1,Cc1cc(C)nc(SCC(=O)Nc2ccccn2)n1,-1.68
2,Oc1oc(-c2ccc(Br)cc2)nc1/C=N/c1nc2ccccc2s1,11.9
3,CC(C)COC(=O)N[C@@H](CC(C)C)C(=O)NCC#N,-2.35
4,COc1cccc(OC)c1C(=O)Nc1ccc(Br)cc1,4.75
5,Cc1nc2ccc(S(=O)(=O)NC(C(=O)NC3CCCCC3)c3ccccc3)cc2s1 (centres unmarked),4.33
6,COc1ccc(Cl)cc1C(=O)N(C)c1ccccc1,-0.796
7,COC(F)(C(=O)Nc1c(-c2ccccc2)nc2ccccn12)C(F)(F)F (centres unmarked),4.11
8,Cc1nc2c(cc1C#N)C(=O)c1ccccc1-2,-7.25
9,COCC(C)NC(=O)C1CC(c2cc(OC)ccc2OC)=NO1 (centres unmarked),2.65
10,CN(C)C(=O)C(Cc1ccccc1)N1C(=O)C2C3C=CC(C3)C2C1=O (centres unmarked),1.12
11,Cc1ccc(C2=N/C(=C\c3ccccc3C)C(=O)O2)cc1,1.25
12,CC(=O)c1c(C)oc2c(Cl)cc(NS(=O)(=O)c3cc(C)ccc3C)cc12,-5.15
13,CO/C(O)=C1/C(C)=Nc2nc(O)nc(O)c2C1c1ccc(OCc2ccccc2)cc1 (centres unmarked),3.47
14,O=C(NC1CCCCC1)ON=C1c2ccccc2-c2ccccc21,-5
15,COc1ccc(C(=O)/C(=C\c2ccco2)N2C=CC=CC2=C(C#N)C#N)cc1,2.7
16,O=C(Cn1cc(C(=O)C(F)(F)F)c2ccccc21)NCc1cccs1,-4.97
17,CCCc1nc(N)c(C#N)c(-c2ccccc2Cl)c1CC,4.51
18,Cc1ccccc1/C=C1/NC(=O)NC1=O,3.8
19,Cc1ccsc1CN1CCN(c2ccc([N+](=O)[O-])cc2)CC1,-6.21
20,COc1ccc(N2CCN(c3ccc(NC(=O)CCC(=O)O)cc3)CC2)cc1,5.15
21,CC(=O)NS(=O)(=O)c1ccc(NC(=O)c2ccc(-c3cccc(Cl)c3C)o2)cc1,2.01
22,COc1ccc2nc(C)cc(Nc3ccc(Cl)cc3)c2c1,0.0345

row,Compound,% Inhibition @ 10 uM [%]
1,CCCOc1ccc(CN(C(=O)c2cc(=O)c3ccccc3o2)C2CCS(=O)(=O)C2)cc1 (centres unmarked),0.248
2,O=C(c1ccco1)N1CCN(C(=O)c2noc3c2CCCC3)CC1,-8.54
3,CSC1=NSC2=NC(=O)/C(=C\c3ccc(-c4ccc(C(=O)O)cc4)o3)C(=N)N12,1.9
4,O=C(c1ccccc1)N(c1ccc(Br)cc1)C1C2CC3CC(C2)CC1C3 (centres unmarked),-1.96
5,Cn1c(C(=O)O)c(CNCCc2ccc(S(N)(=O)=O)cc2)c2ccccc21,1.93
6,CCn1c(NC(=O)COc2cccc(C(F)(F)F)c2)nc2ccccc21,-1.88
7,COC(=O)c1nn2c(C(F)(F)F)cc(-c3ccccc3)nc2c1Br,1.87
8,N#CC1(NC(=O)[C@H](Cc2cc(Cl)c(O)c(Cl)c2)NC(=O)c2ccc(Cl)cc2)CC1,1.7
9,Cc1ccc(-c2[nH]nc3c2C(c2ccc(Cl)cc2Cl)NC3=O)cc1 (centres unmarked),0.208
10,CC(=O)Nc1ccc(S(=O)(=O)N2CCCCC2)cc1,-6.22
11,Cc1ccc(CNC(=O)/C=C/c2ccco2)cc1,1.88
12,COc1cc(Cl)cc(/C=N/c2sc3c(c2C#N)C2CCN3CC2)c1O,-5.51
13,COc1cc(OC)cc(C(=O)Nc2ccc(Cl)cc2)c1,-4.15
14,CCOC(=O)c1[nH]c(C)c(C(=O)CC(C)(C)C)c1C,-2.42
15,CCCC1=C(C(=O)OCC)C(c2ccc(OC)cc2OC)NC(=O)N1 (centres unmarked),3.61
16,COc1ccc(C(=O)n2nc(C)c(Sc3ccccc3)c2C)cc1,12
17,O=C(COc1ccc(Cl)cc1)Nc1ccc(S(=O)(=O)Nc2ccccc2)cc1,2.01
18,CC(C)(C)C(/C=C/c1ccc(Cl)cc1Cl)NC(=O)C1(N2CCC2=O)CCCCC1 (centres unmarked),15.3
19,Cc1ccc2oc(=O)c3cnn(CC(=O)NCCc4ccsc4)c3c2c1,-5.25
20,O=C(Nc1cccnc1)c1cc2ccc3cccnc3c2[nH]1,-3.65
21,O=S(=O)(c1ccc(Cl)cc1)N1CCN(Cc2cccc(F)c2)CC1,-7.18
